# Source: PubChem BioAssay AID488969 (Vanderbilt High Throughput Screening Facility, 2010)
# Whole data set: some 110,000 compounds, median “z-score” near -0.1, cut for the highest 2% near 2. The list shows a part of the results. Calls of active or inactive are those of the source.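 Rule for the calls: active = z-score in the third read window above 3 or below -3; inactive = the rest.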
# Biological target: Metabotropic glutamate receptor 8 (Rattus norvegicus) (UniProt P70579)
# Assay: mGluR8 Gi/Go-coupled signaling modulation – cell-based, rat, thallium flux, HTS, primary screen (AID 488969)
# Conditions: HEK293 rat mGluR8, GIRK (G protein-gated inwardly rectifying potassium channel) thallium flux, FluoZin2; at 10 µM; stronger effect = higher value; submaximal glutamate (EC20) added with thallium
# UniProt P70579, sequence (P70579 whole entry, looked up): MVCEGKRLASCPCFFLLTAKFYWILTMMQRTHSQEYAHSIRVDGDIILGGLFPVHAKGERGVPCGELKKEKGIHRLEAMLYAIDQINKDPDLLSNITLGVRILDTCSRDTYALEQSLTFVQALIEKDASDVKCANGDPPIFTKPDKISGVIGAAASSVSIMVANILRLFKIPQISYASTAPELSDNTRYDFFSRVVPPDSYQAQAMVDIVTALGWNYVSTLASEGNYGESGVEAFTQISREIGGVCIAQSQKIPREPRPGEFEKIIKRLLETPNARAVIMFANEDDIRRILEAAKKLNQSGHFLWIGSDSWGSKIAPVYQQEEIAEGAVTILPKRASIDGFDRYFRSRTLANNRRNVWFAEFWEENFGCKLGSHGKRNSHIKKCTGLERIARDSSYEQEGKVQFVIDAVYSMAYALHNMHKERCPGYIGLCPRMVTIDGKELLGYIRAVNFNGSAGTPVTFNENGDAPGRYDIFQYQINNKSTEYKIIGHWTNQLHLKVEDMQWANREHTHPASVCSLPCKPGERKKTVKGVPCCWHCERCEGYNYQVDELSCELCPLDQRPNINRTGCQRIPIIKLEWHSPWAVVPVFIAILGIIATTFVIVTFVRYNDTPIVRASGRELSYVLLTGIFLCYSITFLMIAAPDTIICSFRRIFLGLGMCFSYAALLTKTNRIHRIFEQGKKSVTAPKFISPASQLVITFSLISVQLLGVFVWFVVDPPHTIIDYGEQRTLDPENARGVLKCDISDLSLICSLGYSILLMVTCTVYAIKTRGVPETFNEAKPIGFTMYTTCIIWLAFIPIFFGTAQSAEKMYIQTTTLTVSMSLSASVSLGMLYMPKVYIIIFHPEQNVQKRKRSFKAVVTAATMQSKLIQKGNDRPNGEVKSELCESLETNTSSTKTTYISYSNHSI
row,SMILES,z-score
1,CC(=O)NC1CC2CCCC(C1)N2C(=O)Nc1ccc(Cl)c(C(F)(F)F)c1 (stereo not given),-0.621
2,CN(c1ccccc1)S(=O)(=O)c1cccc(NC(=O)Cn2cnc3ccccc3c2=O)c1,-0.311
3,Cc1ccc(NC(=O)c2ccc(N3C(=O)C4CC=C(Cl)CC4C3=O)cc2)cc1 (stereo not given),-0.136
4,O=C(CC(NC(=O)c1ccccc1Cl)c1ccccc1)Nc1ccc2c(c1)OCO2 (stereo not given),-0.214
5,Cc1cc(OCC(=O)NCCN2CCOCC2)cc(C)c1Br,0.00352
6,O=C(c1ccc(Cl)cc1)N1CCC(O)(CSc2ccc(Cl)cc2)CC1,0.0754
7,O=C(OCc1ccc(Cl)cc1Cl)c1cccnc1Cl,-0.157
8,Cn1cnnc1SC(C(=O)Nc1ccc(F)cc1)c1ccccc1 (stereo not given),-0.0653
9,COc1ccc(CCNC(=S)Nc2cc(C)ccc2C)cc1,0.993
10,CC1=CCC2C(=O)N(c3cc(C)on3)C(=O)C2C1 (stereo not given),-0.233
11,Oc1cc2ccccc2cc1-c1nnc2n1-c1ccccc1SC2,-0.0288
12,Cc1cc(C)c(C)c(S(=O)(=O)N2CCC(C(=O)Nc3ccccc3N3CCOCC3)CC2)c1C,-0.125
13,CC(=O)c1ccn(S(=O)(=O)c2ccccc2)c1,0.134
14,COc1ccc(-n2nc(C(=O)NCc3ccco3)c3ccccc3c2=O)cc1,-0.158
15,Cc1cccc(C)c1OCc1nc2ccccc2c(=O)n1/N=C/c1c[nH]c2ccccc12,-0.077
16,COc1ccccc1CNC(=O)c1nn(-c2ccc(C)cc2)c(=O)c2c1c1ccccc1n2C,-0.421
17,CCN(CC)C(=O)CSc1nc2ncc(Cl)cc2[nH]1,0.365
18,C=CCN(CC=C)C(=O)C1CC(=O)N(c2ccc(Br)cc2)C1 (stereo not given),0.000969
19,Cc1cc(OC(=O)c2cc(F)c(F)cc2Cl)nc(C)n1,0.0986
20,Cc1cc(Br)ccc1NC(=O)CNC(=O)CN(C)Cc1nc2ccccc2c(=O)[nH]1,0.0175
21,Cc1onc(-c2ccccc2Cl)c1C(=O)NCCCN1CCOCC1,0.356
22,CCOc1ccc(N2C(=O)CC(N3CCc4ccccc43)C2=O)cc1 (stereo not given),1.67

row,SMILES,z-score
1,CCN(CC)S(=O)(=O)c1cc(NS(=O)(=O)c2cccc(Cl)c2Cl)ccc1C,-0.439
2,O=C1NCCc2c1[nH]c1ccccc21,1.33
3,COc1ccccc1C(=O)Nc1ccccc1SC,-2.26
4,N#CCCN(Cc1ccccc1)C(=S)NC(=O)c1ccccc1,2.39
5,CCOc1ccccc1/C=N/NC(=O)Cc1csc(Nc2cccc(C(F)(F)F)c2)n1,-0.0917
6,c1ccc2c(c1)c1ccccc1n1c(-c3ccc4c(c3)OCO4)nnc21,-0.399
7,Cc1cc2c(cc1C)C(c1cc(Br)ccc1F)CC(=O)N2 (stereo not given),-0.204
8,O=C1c2ccccc2C(=O)C12OC2c1ccc(Cl)cc1 (stereo not given),-0.344
9,COc1cccc(C(=O)Nc2nc(-c3ccc(S(=O)(=O)N4CCOCC4)cc3)cs2)c1,-0.223
10,CCCCN(CC)C(=O)CSc1nc2ccccc2c(=O)n1CC1COc2ccccc2O1 (stereo not given),-0.739
11,Cc1nc(-c2ccc(C(=O)N3CCOCC3)cc2)cs1,0.0461
12,CCOc1ccc(NC(=O)C(C)Oc2ccccc2C(=O)Nc2ccc(C)c(Cl)c2)cc1 (stereo not given),-0.167
13,O=C(Nc1ccc2c(c1)OCO2)C1CCCN(S(=O)(=O)Cc2ccccc2)C1 (stereo not given),-0.171
14,Cc1nc2nc(SCC(=O)c3cccc([N+](=O)[O-])c3)[nH]c2cc1Br,-0.352
15,COC(=O)/C=C1/N/C(=N\c2nc(C)cc(C)n2)N(c2ccc(Cl)cc2)C1=O,-0.0567
16,COc1cc(NC(=O)c2ccc(Br)o2)ccc1NC(=O)c1ccccc1Cl,-1.12
17,COc1cc(C(=O)OCC(=O)N(C)Cc2ccccc2)cc(OC)c1OC,-0.417
18,Cc1ccc(C(=O)N/C(=C\c2cccs2)C(=O)NCc2cccnc2)cc1,-0.235
19,COc1ccc(Cc2nc(C(=O)Nc3ccccc3)cs2)cc1,-0.483
20,COc1ccc(C2C(C(=O)Nc3ccc4c(c3)OCCO4)c3ccccc3C(=O)N2C)cc1 (stereo not given),0.04
21,CCCS(=O)(=O)N1CCC(C(=O)NCc2ccco2)CC1,0.18
22,CCC(Oc1ccccc1)C(=O)Nc1nnc(C(F)(F)F)s1 (stereo not given),-0.697

row,SMILES,z-score
1,CCOC(=O)COc1ccsc1C(=O)OC,-0.0579
2,CCn1c(NC(=O)c2ccc(F)cc2)c2ccccc2nc1=O,0.0383
3,COc1cccc(CN2C(=O)Nc3ccccc3C(=O)N2C(C)(C)C)c1,0.149
4,Cc1cc(NC(=O)c2cc(-c3ccccc3C)nc3ccccc23)no1,-0.217
5,COc1ccc(C2C(Oc3ccccc3)C(=O)N2c2ccc(C)c(C)c2)cc1OC (stereo not given),-0.263
6,COc1ccc(/C=C/C(=O)Oc2cccc(/C=N/NC(=O)COc3c(C)cccc3C)c2)cc1,-0.0501
7,CC(C)CCn1c(-c2nonc2N)nc2ccccc21,-0.118
8,CCOC(=O)C1=C(C)N(C)C(=O)NC1c1cc2c(cc1Br)OCO2 (stereo not given),1.61
9,Cc1ccccc1OCCn1cc(C(=S)N2CCCC2)c2ccccc21,-0.0633
10,CCC(=O)N(Cc1cc2c(C)cc(C)cc2[nH]c1=O)C1CCCCC1,-1.28
11,COc1ccc2c3c(cccc13)NN=C2C,0.39
12,CC(C)CC(=O)Nc1sc2c(c1C#N)CC(C)(C)NC2(C)C,-0.251
13,O=C(COc1c(Br)cc(Br)c2cccnc12)N1CCc2ccccc2C1,active: 3.14
14,Cc1ccc(S(=O)(=O)CCC(=O)Nc2ccc3c(c2)OCO3)cc1,-0.0887
15,Cc1ccc(CN2CCN(CC(=O)NC(C)CCc3ccccc3)C2=O)cc1 (stereo not given),-0.123
16,CCCCOc1ccccc1N,0.576
17,COc1ccc(N=Nc2cnc(C)nc2-c2ccccc2)cc1,0.262
18,CCOc1ccccc1NC(=O)NC1(C(=O)N2CCN3CCCC3C2)CCCCC1 (stereo not given),-0.551
19,COC(=O)C1=NN(c2ccccc2)C2(S1)S/C(=C\c1ccccc1)C(=O)N2c1ccccc1 (stereo not given),0.473
20,Cc1nc2ccccc2n1CCc1nc2c3ccccc3nc(SCC#N)n2n1,0.407
21,COc1ccccc1OCc1nc(-c2ccc([N+](=O)[O-])cc2)no1,-0.17
22,CCOC(=O)C(NC(=O)c1ccccc1Cl)(Nc1sc2c(c1C(N)=O)CCC2)C(F)(F)F (stereo not given),-0.416

row,SMILES,z-score
1,O=C1CC(N2CCOCC2)C(=O)N1c1ccccc1Cl (stereo not given),-0.124
2,O=C(CCSc1ccccc1)N1CCN(C(=O)c2ccco2)CC1,-0.515
3,O=c1/c(=C/c2ccco2)sc2n1CN(c1cccc(Br)c1)CN=2,-1.12
4,Cc1cc(NC2C3CC4CC(C3)CC2C4)n2ncnc2n1 (stereo not given),-0.0268
5,CNC(=O)C1CC(=O)N(CCc2ccc(OC)cc2)C(=Nc2ccc(OC)cc2)S1 (stereo not given),0.0547
6,Cn1c(=O)n(C)c2cc(C(=O)c3ccccc3)ccc21,-0.216
7,O=C(c1cccc(F)c1)N1CCC(N2CCOCC2)CC1,-0.231
8,CCOC(=O)c1c(C)[nH]c(C)c1C(=O)COC(=O)c1ccc(S(=O)(=O)N(CC)CC)cc1,-0.297
9,Cc1ccc(C(=O)Nc2cccc(C(=O)N3CCOCC3)c2)cc1,-0.208
10,N#C/C(=C\c1cn(CCOc2ccccc2F)c2ccccc12)C(=O)NCc1cccs1,-0.0588
11,N#Cc1cc(-c2cccc(Cl)c2)c[nH]c1=O,-0.201
12,CSCCC1NC2(C(=O)Nc3ccc(Cl)cc32)[C@@H]2C(=O)N(C3CCCC3)C(=O)[C@H]12 (stereo not given in full),-0.242
13,CSc1nnc(NC(=O)c2ccc(C)c(S(=O)(=O)N3CCOCC3)c2)s1,0.184
14,Cn1c(=O)c2c(nc(Oc3ccc4c(c3)OCO4)n2Cc2ccc(F)cc2)n(C)c1=O,-0.184
15,O=P(Cc1nnco1)(c1ccccc1)c1ccccc1,-0.133
16,C=CCSc1nc(Cc2ccc(Cl)cc2)nc2ccccc12,-0.333
17,CCOc1cc(C2CC(=O)N3CN(C4CCCCC4)CSC3=C2C#N)ccc1O (stereo not given),-0.948
18,CCOC(=O)C1CCN(c2c(N3CCN(Cc4ccccc4)CC3)c(=O)c2=O)CC1,1.94
19,COc1c(C)cc(Br)cc1C(=O)Nc1ccc(C)cc1[N+](=O)[O-],0.0365
20,COC(=O)c1ccc2c(=O)n(CCN3CCOCC3)c(=S)[nH]c2c1,0.346
21,O=C(N/N=C/c1sc2ccccc2c1O)c1ccccc1,1.46
22,CC(C)CN1C(=O)c2ccccc2C1(O)Cc1ccccc1 (stereo not given),-0.306

row,SMILES,z-score
1,CC(C)(C)NC(=O)COC(=O)c1cc(F)c(F)cc1Cl,-0.194
2,COc1ccc(N(C(=O)COc2cccc(C)c2)S(=O)(=O)c2ccc(C)cc2)cc1,-0.232
3,O=C(/C=C(\O)c1ccc(Cl)cc1)C(=O)NNC(=O)C(O)(c1ccccc1)c1ccccc1,-0.125
4,COC(=O)N/N=C/c1ccc(-c2cccc(Cl)c2)o1,-0.218
5,C/C(O)=C\c1nc(=O)c2c(C)cc(C)nc2n1-c1ccccc1,-0.248
6,O=C(CSc1nnc(-c2ccccc2F)o1)OCc1ccccc1,-1.2
7,CCCSc1nc2c(cnn2-c2ccc(Cl)cc2)c(=O)[nH]1,0.938
8,Cc1ccc(NC(=O)C(Nc2cccc(C)c2)c2ccccc2)cc1 (stereo not given),-0.102
9,Cc1cc(NC(=O)/C(C#N)=C/c2ccc(-c3cccc(C(F)(F)F)c3)o2)n(-c2ccccc2)n1,-0.705
10,CCOc1ccc2c(c1)nc(SCC(=O)c1ccc(Br)s1)n2C,-0.0596
11,Cc1cc(NC(=O)Cn2nnc(-c3ccccc3N)n2)no1,0.0511
12,Cc1sc2ncn(-n3c(C)ccc3C)c(=O)c2c1C,0.559
13,Cc1ccc(C2CC(c3cccs3)=NN2C(=O)c2ccc(Br)o2)cc1 (stereo not given),-0.823
14,CCOC(=O)c1c(NC(=O)CSc2nnc3c(Cl)cc(Cl)cn23)sc2c1CCC2,-0.585
15,CCN(CC)C(=O)C(Sc1ccccc1)c1ccccc1 (stereo not given),0.926
16,NC(=O)Cc1ccc2sc(-c3ccccc3)nc2c1,-0.155
17,Brc1ccccc1-c1nnc(COc2ncnc3c2cnn3-c2ccccc2)o1,-1.21
18,COC(=O)C1=C(CSc2nc3c(cc2C#N)CN(C)CC3)OC(N)=C(C#N)C1c1ccccc1F (stereo not given),-0.183
19,O=C(Nc1cccc(O)c1)c1cnn2cccnc12,-0.0897
20,CSCC[C@@H](C(=O)O)N1Cc2ccccc2C1=O,0.187
21,COc1ccc(Br)cc1CN1CCCC(C(=O)N2CCCCCC2)C1 (stereo not given),0.248
22,CCOc1ccc(-c2cc(C(=O)NN)[nH]n2)cc1,0.556
